In all, about 33,000 sequences were measured (“E-score (dimensionless, -0.5 to 0.5)”: median about -0.058, highest 2% from about 0.35 on). Some of the results follow.
Each sequence was assayed on MvaT (assay: PBM 8-mer E-score (mean of HK and ME arrays) (E-score (dimensionless, -0.5 to 0.5)); higher = stronger relative binding preference; most listed sequences are background and not binding sites).
Summary of the method: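 Reported values are rank-based E-scores, taken as the mean of two universal arrays and parsed with a custom script. Each 8-mer score falls between -0.5 and 0.5. The arrays, ME and HK, were double-stranded 60-mers with a constant 25-mer primer region and a variable 35-mer region covering all 8-mers. They were probed, by an earlier protocol, with full-length P. aeruginosa MvaT carrying an N-terminal glutathione S-transferase fusion.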

Sequence | PBM 8-mer E-score
ATCCCCAG | -0.243
CACCGAAA | -0.0393
CTCACAGC | -0.0646
ACCAATTG | 0.18
ATCTGCGG | -0.304
ATCTGAAT | 0.181
CCCGGCGC | -0.295
CCGTTGCC | -0.127
AGGGGGAG | -0.246
AGCCGTTG | -0.178
ACTGAAGA | -0.0905
AAGATGTC | 0.0644
AATCGTGT | 0.0667
AAGTTTGA | 0.289
CACGAGCC | -0.157
ACGTCCGA | -0.131
AGTCTTAC | 0.0995
AGCTTGCA | -0.201
AACTCGGA | -0.204
AGACGTCA | -0.0631
CTTTCCAA | -0.0652
AAGCACAT | 0.0617
CGTATTCC | 0.0945
GCAGACCC | -0.196
CATGGTGG | -0.18

Sequence | PBM 8-mer E-score
GATCCGAC | -0.229
ACTCGGCT | -0.142
CGGCAGCC | -0.227
AATCTTAC | 0.084
AGTCCATA | -0.0417
CTTGCGGC | -0.183
CTCCAGGC | -0.291
ATGCGACA | 0.0362
ACACCCTC | -0.052
GGCCGGCC | -0.209
GCGAACGA | -0.161
CTTCTGCA | 0.0154
AATCCCGG | -0.128
GGCAGCAA | -0.109
ACAATTTA | 0.353
GAATCTGA | -0.0293
TCACACAA | 0.054
AACGCACG | -0.152
TTAAAAAA | 0.305
GTAGCATA | 0.0752
GTAAGGAA | 0.00351
CGAGCGAG | -0.153
ATTATTCG | 0.378
ACCCCGTG | -0.237
CGTAATAC | 0.208

Sequence | PBM 8-mer E-score
CCGCTGGA | -0.269
CAGGGGCA | -0.373
CTCCTTCA | -0.306
AGGGATAT | 0.0422
AGTTTGTG | 0.223
CTCATGAA | -0.0445
ATAAACAA | 0.327
AATTTGCA | 0.0865
GCGTAACA | 0.0692
GTCAAACA | 0.123
CCCATGGC | -0.275
GTCCCGTA | -0.123
ATCCACGG | -0.105
CCGTATCC | -0.0843
CATGTGCC | -0.113
AATTTAAC | 0.31
CACACTAC | 0.197
CACGCTGG | -0.201
CAAGTACA | 0.18
CTGACTTC | -0.174
GGCCCCAC | -0.197
AAAGTTTC | 0.296
GAGTCGCA | -0.259
CAGGTGAG | -0.208
GGCAATGA | -0.0455

Sequence | PBM 8-mer E-score
AACGGGCT | 0.0442
GGTGATTA | 0.0569
ACCCTCCA | -0.23
AATCGGCC | -0.0943
CCGATCCA | -0.176
AGCAACCG | -0.127
CATCAGGG | -0.209
CTAGTTAC | 0.212
AACTTGCG | 0.232
ATCAGACA | 0.0445
AGGTTGAC | -0.0422
AAGGATTA | 0.00301
GTACATTA | 0.308
ATCCTCAT | -0.201
AGGCAGTC | -0.165
GGTCCGCA | -0.0756
ACCTGCAT | 0.0636
CTAATAAG | 0.213
CTCAATTA | 0.234
CGACACGA | -0.0857
AACGAAGC | -0.0882
CCTTCTCC | -0.268
CCAACGTC | -0.138
CGCATACC | -0.0906
AAGGCATG | -0.0865

Sequence | PBM 8-mer E-score
AGGCGTAA | -0.205
AAACCTGT | -0.034
ACTAGCAT | -0.0487
ACATATTC | 0.281
CAGACGGA | -0.156
AGAAGCCT | -0.176
AGGCTGGC | -0.331
CGGTAGAG | -0.0757
CGGCCCGC | -0.294
AAACAACG | 0.157
AGGCCTTG | -0.183
GTGGATAA | 0.103
GAGGTCGA | -0.159
CGTTCTAA | 0.059
AAGATGGG | 0.125
CAACCACC | -0.0994
GGCTCCCA | -0.209
ATTGCCGC | -0.0616
ATGGAGGG | -0.32
GCCGTCGA | -0.229
TCACCCAA | 0.0991
ACCTGAAC | -0.147
GCTGATCC | -0.223
AGTCCATG | -0.157
CGGTACAA | 0.0563

Sequence | PBM 8-mer E-score
AAAATATC | 0.314
AGAATAAC | 0.232
AATATCGC | 0.227
CGCGATTA | 0.0811
CCCAAACA | 0.16
AGTGACCC | -0.144
ATTGATCA | 0.146
GATTTCGC | -0.1
GAGTTTCA | -0.0971
CCACGCGC | -0.112
GCGTGTAC | -0.107
CCGTTGTA | -0.0184
CAAGTTAG | 0.194
CTCTAAAA | 0.0251
CACGCAGC | -0.256
ATAGATCG | 0.0256
AATACTTG | 0.191
AGTACGTC | 0.0613
AAGATTTA | 0.295
CGCCTAAA | -6.02e-05
AGGTCAGC | -0.158
CCCATGCG | -0.209
TATATCAA | 0.352
GCAGCTAC | -0.276
AACAACCT | -0.0621

Sequence | PBM 8-mer E-score
AACACGTC | -0.139
AGGGTATC | -0.165
ACACTCTC | -0.133
AGCGAAAC | -0.0107
CGCCAACC | -0.0585
GGTAGAAA | 0.119
GCATCTCC | -0.238
AGATATAT | 0.46
CCGCCACA | -0.0657
CTTTTTCC | -0.118
CGATCCCG | -0.18
TATGGTGA | 0.0346
GAGGGGCC | -0.335
CTCCGCCA | -0.247
ACTTGCCC | -0.0722
CCTTACAA | 0.0169
AGTAGTAG | 0.0232
AATATACT | 0.421
CAAACTAA | 0.376
AAGGATTC | -0.0399
GGGACCAA | -0.171
GCTCAGCC | -0.291
GAGGACAA | -0.0507
CGGAGGTC | -0.226
TACAACGA | 0.137

Sequence | PBM 8-mer E-score
CAATTTGA | 0.261
ATAGCCCA | -0.0269
CCCCGCGA | -0.0625
CCCTGACA | -0.102
CATAGTTA | 0.178
ACTTCGCT | 0.0588
ATAAGCTC | 0.117
ACACGCTG | -0.0855
CGAAACCC | -0.303
CCAGCTGC | -0.221
GATTTGAC | -0.0774
AATCTATG | 0.018
AGCGTGGC | -0.203
CTGTCGGC | -0.23
CCGGTCTC | -0.177
AGCATGCG | -0.24
ACTAGAGA | -0.0368
CTATGTGC | -0.00324
CGGGCGAC | -0.164
AGTCGTGA | -0.172
GTACCGGA | -0.176
GGGGGTTA | -0.187
CCGGGATA | -0.0766
CGCCGTCC | -0.22
AGTACTCA | 0.089

Sequence | PBM 8-mer E-score
ACAATCCC | 0.129
AAGTTGGT | 0.23
GCGCGCAA | 0.159
CTACTATA | 0.292
ACAAGGAA | -0.0659
CAAGTGTA | 0.0572
CTAGCACC | -0.205
ACCTTCCC | -0.163
CGCTGACC | -0.0604
AGTTAAGA | 0.195
AGCACTTG | -0.104
GACTGGTA | -0.0435
AAACGCAG | -0.0873
AAGTTCAG | 0.247
CGTATTGC | 0.0393
ACGTTGGC | -0.194
GACCATAC | -0.0941
GGCGACCC | -0.323
GGGGTTAC | -0.246
CTTGGACC | -0.179
CGGGAATA | 0.0782
AGCAGAAC | -0.0738
GCGCGTAC | -0.156
CAGCCCGG | -0.218
AGTCATCC | -0.183

Sequence | PBM 8-mer E-score
CATAAGGA | -0.0113
TCAAGAGA | -0.145
ATCGCTCC | -0.14
CTCCGACA | -0.0612
ACTCTTGG | -0.0512
AGGCTCTA | -0.116
CCCATCGG | -0.267
AACTGATC | -0.00863
CCGCAACG | -0.129
ATTATCAA | 0.321
TCATATCA | 0.138
CCATCCAC | -0.18
GTTGGATA | 0.195
ATAGGGTG | 0.068
ACTAATCA | 0.173
CAATTTCG | 0.0861
ACACCGAG | -0.157
CCTGGAAG | -0.186
ACTGGCGA | -0.0124
ACGACATC | -0.187
CACTACCC | -0.265
AATGGAAG | -0.13
CTGCCGAA | -0.071
AAAGAGAG | -0.103
CCCGGAAA | -0.196

Sequence | PBM 8-mer E-score
ACTAGCGC | -0.278
CAGGATCG | -0.115
GACCACCC | -0.296
TACACGAA | 0.123
ATCCGTTG | 0.0118
ACCTAGTC | -0.0549
AGGGCTAT | -0.13
TCACATCA | -0.0704
CCTCATGA | -0.181
ATGGATGA | 0.0515
CAAGAGGG | -0.174
AACGTATG | -0.00901
ACCACCCG | -0.269
CGGGAGAA | -0.0693
AGGAGTTA | 0.108
TACGGGAA | -0.000902
ATTTGTCG | 0.142
ACTATGAC | 0.159
AGGGATGC | -0.182
AAATTACG | 0.256
ACGAACTG | 0.115
AAGCCTTG | -0.239
ACGTAAGT | 0.121
GACTATGC | -0.0746
CCTATCCA | -0.122

Sequence | PBM 8-mer E-score
CCGGAGCC | -0.284
ATACGATA | 0.148
GCCTGGCC | -0.189
ACCTTGAA | -0.101
CCCATCCC | -0.159
GCGTCGAA | -0.0372
CCTGCGAA | -0.106
CAGCAGAA | -0.0822
CTAACTAG | 0.0036
CTACACGA | -0.0126
AAACATCC | 0.13
ATGGCAAA | -0.0106
AACATGAG | 0.146
CACACACA | 0.0908
AGGCACAT | -0.0523
CGCATGAA | -0.0415
AGAAGAAC | -0.0192
AATGTATC | 0.252
TAAAACGA | 0.205
CAAGTGAG | -0.181
AATAGAGT | 0.0931
CAATGTAA | 0.236
ACAACCAG | -0.0427
ATGTACCC | 0.0866
ATTAATCA | 0.405

Sequence | PBM 8-mer E-score
TCATGACA | -0.0413
GAACGACC | -0.135
CCTGAAGA | 0.0868
AAAACCGA | 0.0671
AGCAGGGA | -0.154
CTCCACAG | -0.203
AATGTCTG | -0.0324
AATCGAGG | 0.019
CGCGATGA | -0.0178
TCCCGTCA | -0.176
CCACAGAG | -0.0972
CCAAAACA | 0.0855
TCTATGAA | -0.00325
ATCCCAGA | -0.203
ACCTGCCA | -0.23
GGCTGCAA | -0.126
TGCTTCAA | 0.0137
ACATTCCA | 0.0119
ATAGAGGA | -0.0011
AGGCAGTG | -0.201
ACCTCTCG | -0.174
ATGTAGCG | 0.0264
AATGGATC | 0.0131
GAGATAAA | 0.08
ACCTCAGA | -0.115

Sequence | PBM 8-mer E-score
AGGCCGCC | -0.297
ACCGGCCA | -0.294
GAGATCCC | -0.302
CTCACAAC | -0.0135
TAATCGGA | -0.0465
ATCCTCGA | -0.108
CGTTAAGA | 0.0577
AGTCACAT | -0.0559
TGTGGTAA | 0.0918
ATGGTCAC | -0.131
CGCGAGAG | -0.158
ACGGAAAA | 0.0619
AACCGGAC | -0.0871
AAGTTGCA | 0.144
GAAGCAAA | -0.0956
AAGCGGCA | -0.0224
CAGTAGGC | -0.318
AACCCAAG | -0.0603
CGGGGCGA | -0.231

Reference: the supplement of paper PMC4466236
